Measurements taken from PubChem BioAssay AID485344 (National Center for Advancing Translational Sciences (NCATS), 2010).
In all, about 340,000 compounds went through this assay and about 6,900 (2%) were called active. Rule as the data show it: active = inhibition above about 30%; inactive = below that, where a call was filed. Only a part is listed here, and it is no random draw. The source gives no active or inactive call for entries shown without one.

Each compound was assayed against D(2) dopamine receptor (Homo sapiens) (UniProt P14416) (assay: HTS Assay for Allosteric Antagonists of the Human D2 Dopamine Receptor: Primary Screen for Antagonists). Settings: HEK293 TREx D2 cells, calcium flux, dopamine EC80; at 10 µM; stronger effect = higher value.
Procedure, shortened: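 Cells plated overnight at 30 C with tetracycline; no-wash calcium dye, 30–90 min RT; 10 s baseline; compound pinned; 180 s read; EC80 dopamine added; another 180 s read.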
Also: 0% is about no effect.

Sequence of UniProt P14416 (P14416 whole entry, looked up): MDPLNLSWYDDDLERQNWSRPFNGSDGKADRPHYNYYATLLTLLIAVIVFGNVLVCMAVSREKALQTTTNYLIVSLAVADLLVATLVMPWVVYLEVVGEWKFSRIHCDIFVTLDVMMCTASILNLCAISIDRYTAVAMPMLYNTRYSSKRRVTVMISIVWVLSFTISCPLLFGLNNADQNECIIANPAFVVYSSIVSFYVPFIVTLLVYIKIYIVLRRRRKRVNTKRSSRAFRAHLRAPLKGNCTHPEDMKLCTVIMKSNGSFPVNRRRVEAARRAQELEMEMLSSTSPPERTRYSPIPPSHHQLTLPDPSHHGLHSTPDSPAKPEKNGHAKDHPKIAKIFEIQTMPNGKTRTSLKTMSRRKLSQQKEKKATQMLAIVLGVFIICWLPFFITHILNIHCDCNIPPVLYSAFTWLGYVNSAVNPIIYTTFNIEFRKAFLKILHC

SMILES	inhibition
COc1cccc(-c2nc(CS(=O)(=O)CC(=O)N3CCN(c4cc(C)ccc4C)CC3)c(C)o2)c1	24.6%
CCc1ccc(C2CC(=O)c3c([nH]c(C(=O)OC4CCCC4)c3C)C2)cc1 (configuration not stated)	25.1%
COc1ccc(OC)c(C2CC(=O)Nc3c2c(=O)[nH]c2ncnn32)c1 (configuration not stated)	1.4%
COc1ccc(C2NC(=O)N(C)C3=C2C(=O)N(c2ccc(C(=O)O)cc2)C3)cc1 (configuration not stated)	-5.08%
Cc1nn(C)cc1CN(C)C(=O)c1cc(-c2ccccc2)nc2ccc(Br)cc12	4.14%
O=C(Nc1cccc(C(F)(F)F)c1)c1cnn(-c2cccc(F)c2)c1C1CCNCC1	6.68%
O=C(CCNC(=O)c1ccc([N+](=O)[O-])cc1)NC1CCCc2ccccc21 (configuration not stated)	active: 32.3%
CCOc1ccc(CCNC(=O)c2oc(=O)c3ccccc3c2-c2ccc(C)cc2)cc1OCC	-7.87%
Cc1ccc(NC(=O)CCS(=O)(=O)c2ccc(Br)s2)c(Br)c1	0.752%
CC(C)(C)c1ccc(C(=O)NCCc2csc(-c3ccc(Cl)cc3)n2)cc1	-8.48%
CC1Cc2ccccc2N1C(=O)CSc1nc2ccc(NC(=O)COc3ccccc3)cc2s1 (configuration not stated)	-17.1%
CC1=C(C(=O)NCc2cccc(F)c2)C2(CCCCC2)OC1=O	-15.2%
CCOC(=O)C(C)Sc1ccc2nnc(CCNS(=O)(=O)c3ccc(C)cc3)n2n1 (configuration not stated)	-1.41%
N#Cc1c(C(F)(F)F)cc(-c2cccs2)nc1SCc1ccc(F)cc1	-8.9%
Cc1ccc(CNCc2ccccc2Cl)s1	-4.68%
COc1ccc(-c2nnc(SCC(=O)NCCC(C)C)nc2-c2ccc(OC)c(OC)c2)cc1OC	-5.59%
COCc1cc(C)nc2c1C(=O)NC(c1ccc(F)cc1)N2Cc1ccccc1 (configuration not stated)	5.4%
CCCS(=O)(=O)N1CCC(C(=O)NCCCN2CCC(Cc3ccccc3)CC2)CC1	active: 32.9%
COC(=O)c1cc2oc(C)cc2n1CC(=O)Nc1ccc(C(C)C)cc1	4.48%
CCc1cccc(C)c1NC(=O)Cn1nc(C)n2cccc2c1=O	-0.729%
COc1ccc(C(=O)Nc2ccc(N(C)Cc3ccccc3)c(C(=O)O)c2)cc1	-0.969%

SMILES	inhibition
CCOC(=O)Cn1c(=O)n(CC2CCCO2)c2nc(-c3ccccc3)nc(C(N)=O)c21 (configuration not stated)	-9.92%
CCOC(=O)C1=C(CN2CCN(c3ccccc3OC)CC2)NC(=O)NC1c1ccccc1 (configuration not stated)	-11%
O=C(CN1CCCN(Cc2ccccc2F)S1(=O)=O)Nc1ccc(F)c(Cl)c1	-10.4%
CC(C)NC(=O)N1[C@H](c2cccs2)[C@@H](C)C(=O)[C@@H](C)[C@@H]1c1cccs1	22.3%
COc1ccc(-n2nc(C(=O)Nc3cc(C)ccn3)c3c4ccccc4n(C)c3c2=O)cc1	8.26%
CCCCn1c(=O)n(-c2cc(OC)ccc2OC)c(=O)c2c3c(sc21)CN(C(C)=O)CC3	7.67%
O=C(CC1N=C2c3ccccc3N=C(SCc3ccccc3Cl)N2C1=O)NCCc1ccccc1 (configuration not stated)	-12.1%
Cc1cc(Nc2cccc(Cl)c2)nc2ccc(NC(=O)c3cncc(Br)c3)cc12	-11.6%
CCOc1ccc(-n2nc3ccc(NC(=O)c4ccc(OC)c(Cl)c4)cc3n2)cc1	-5.29%
Cc1ccc2c(=O)cc(C(=O)Nc3sc4c(c3C(=O)NCC3CCCO3)CCC4)oc2c1 (configuration not stated)	16%
CCC(C(=O)NCc1ccccc1OC)n1nc(C)n2c(cc3occc32)c1=O (configuration not stated)	3.08%
Cc1oc(-c2ccccc2Cl)nc1CS(=O)(=O)CC(=O)NCc1ccc(F)cc1	11.9%
O=c1c(=O)n(-c2ccc(F)c(F)c2)ccn1Cc1ccc(F)cc1Cl	6.26%
CCOc1ccccc1NC(=O)CN(C)S(=O)(=O)c1ccc(C(=O)N2CCOCC2)s1	9.58%
COc1ccc(C)cc1NC(=O)C1CCCN(c2ncnc3onc(C)c23)C1 (configuration not stated)	3.64%
CCOC(=O)c1noc2ncn(CC(=O)Nc3cccc(C(F)(F)F)c3)c(=O)c12	6.06%
CCc1nn(CC(=O)N2CCCCC2)c(=O)c2cc3occc3n12	-3.71%
CCCc1nnc(NC(=O)c2nc(SCC)ncc2Cl)s1	-8.82%
CCOC(=O)C1=C(CS(=O)(=O)c2ccc(F)c(C)c2)NC(=O)NC1c1ccccc1OC (configuration not stated)	-13.1%
COc1ccc(Cl)cc1C(=O)NCCN(C)C	active: 33.5%
CCOc1ccc(NC(=O)N2CCN(c3nnc(C)c4c(C)n(-c5ccccc5)nc34)CC2)cc1	-1.84%

SMILES	inhibition
O=C(CCCSc1nnc(Nc2ccccc2F)s1)N1CCOCC1	active: 39.3%
COc1ccc(C(=O)c2c[nH]cc2-c2ccccc2)cc1	active: 39.8%
COc1ccc(C)cc1NC(=O)C1CCN(S(=O)(=O)c2cc(Br)cc3c2N(C(C)=O)CC3)CC1	4.12%
CCc1nn2c(=O)cc(COC(=O)c3ccccc3)nc2s1	-9.84%
CCOC(=O)CNC(=O)N1CCCN(S(=O)(=O)c2ccc3c(ccn3CC)c2)CC1	27.2%
Cc1ccc(-c2cc3ncc4c(n3n2)-c2cc(F)ccc2OC4)cc1	12.4%
CCOc1ccccc1NC(=O)N(Cc1ccc(C)o1)C1CCN(C(C)=O)CC1	-2.14%
COc1ccc(C)c2sc(N3CCN(C(=O)c4cccc(F)c4)CC3)nc12	-5.86%
CCc1ccc(C(=O)c2cn(CC(=O)Nc3cccc(OC)c3)c3cc4c(cc3c2=O)OCO4)cc1	0.857%
O=C(CSc1nnc(-c2ccc(Cl)cc2)o1)c1ccc([N+](=O)[O-])cc1	-3.93%
O=C(c1ccccc1Br)N(Cc1ccco1)Cc1ccco1	5.47%
C/C(=N\N(C)C)c1ccc(OCCOc2ccc([N+](=O)[O-])cc2)cc1	active: 33.5%
CCn1c(SCc2c(F)cccc2Cl)nc(=O)c2c(C(=O)OC)cc(C3CC3)nc21	-7.1%
Cc1cc(Cl)ccc1NC(=O)Cc1ccc(NC(=O)N2CCCCc3ccccc32)cc1	4.71%
COC(=O)c1cccc(NC2=NS(=O)(=O)c3ccccc32)c1	-6.79%
COc1ccc(OC)c(NC(=O)C2Cc3ccccc3CN2S(=O)(=O)c2ccc(F)cc2)c1 (configuration not stated)	16.4%
CC1=C(C(=O)Nc2ccc(Cl)cc2)C(c2ccccc2F)n2nc(SCc3cccc(Cl)c3)nc2N1 (configuration not stated)	16.8%
Cc1cc(C)nc(/N=C(\N)Nc2ccc([N+](=O)[O-])cc2)n1	active: 36.8%
CCc1ccc(CNC(=O)c2cc3n(n2)CCCN(Cc2ccccc2)C3=O)cc1	6.77%
Cc1ccc(Cn2c(=O)n(CCc3ccc(Cl)cc3)c(=O)c3ccccc32)cc1	3.35%
